# The other results are listed elsewhere or left out.
# B1: Surfactant Protein D (Human); Neck + Carbohydrate Recognition Domain (NCRD) (Homo sapiens) (protein)
# chain: MLLFLLSALVLLTQPLGYLEAEMKTYSHRTMPSACTLVMCSSVESGLPGRDRDGREGPRGEKGDPGLPGAAGQAGMPGQAGPVGPKGDNGSVGEPGPKGDTGPSGPPGPPGVPGPAGREGALGKQGNIGPQGKPGPKGEAGPKGEVGAPGMQGSAGARGLAGPKGERGVPGERGVPGNTGAAGSAGAMGPQGSPGARGPPGLKGDKGIPGDKGAKGESGLPDVASLRQQVEALQGQVQHLQAAFSQYKKVELFPNGQSVGEKIFKTAQFVKPFTEAQLLCTQAGGQLASPRSAAENAALQQLVVAKNEAAFLSMTDSKTEGKFTYPTGESLVYSNWAPGEPNDDGGSEDCVEIFTNGKWNDRACGEKRLVVCEA
# Tests used:
# Assay in all cases: glycan array binding signal (z-score within array); higher = stronger binding
# Conditions in all cases: glycan notation: IUPAC condensed, linker removed; mutation: F355A
# [1] = biological target: Neu5Ac(a2-3)Gal6S(b1-4)[Fuc(a1-3)]GlcNAc
# In short: (§1)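 Arrays were curated from the Consortium for Functional Glycomics database, 3228 in total, and kept only where the protein sequence was available. Binding is expressed as a within-array Z-score. This score was averaged across arrays of the same protein sequence at different concentrations or buffers and across linkers, and negative values can be read as non-binding.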
# Neu5Ac(a2-3)GalNAc = biological target: Neu5Ac(a2-3)GalNAc
# In short: as §1
# [2] = biological target: Neu5Ac(a2-3)GalNAc(b1-4)GlcNAc
# In short: as §1
# [3] = biological target: Neu5Ac(a2-3)[GalNAc(b1-4)]Gal(b1-4)Glc
# In short: as §1
# [4] = biological target: Neu5Ac(a2-3)[GalNAc(b1-4)]Gal(b1-4)GlcNAc
# In short: as §1
# [5] = biological target: Neu5Ac(a2-3)[Neu5Ac(a2-6)]GalNAc
# In short: as §1
# Neu5Ac(a2-6)Gal = biological target: Neu5Ac(a2-6)Gal
# In short: as §1
# Neu5Ac(a2-6)Gal(b1-4)Glc = biological target: Neu5Ac(a2-6)Gal(b1-4)Glc
# In short: as §1
# [6] = biological target: Neu5Ac(a2-6)Gal(b1-4)GlcNAc
# In short: as §1
# [7] = biological target: Neu5Ac(a2-6)Gal(b1-4)GlcNAc(b1-2)Man(a1-3)[Gal(b1-4)GlcNAc(b1-2)Man(a1-6)]Man(b1-4)GlcNAc(b1-4)GlcNAc
# In short: as §1
# [8] = biological target: Neu5Ac(a2-6)Gal(b1-4)GlcNAc(b1-2)Man(a1-3)[GlcNAc(b1-2)Man(a1-6)]Man(b1-4)GlcNAc(b1-4)GlcNAc
# In short: as §1
# [9] = biological target: Neu5Ac(a2-6)Gal(b1-4)GlcNAc(b1-2)Man(a1-3)[GlcNAc(b1-2)Man(b1-4)GlcNAc(b1-2)Man(a1-6)]Man(b1-4)GlcNAc(b1-4)GlcNAc
# In short: as §1
# [10] = biological target: Neu5Ac(a2-6)Gal(b1-4)GlcNAc(b1-2)Man(a1-3)[Neu5Ac(a2-6)Gal(b1-4)GlcNAc(b1-2)Man(a1-6)]Man(b1-4)GlcNAc(b1-4)GlcNAc
# In short: as §1
# [11] = biological target: Neu5Ac(a2-6)Gal(b1-4)GlcNAc(b1-2)Man(a1-6)[Gal(b1-4)GlcNAc(b1-2)Man(a1-3)]Man(b1-4)GlcNAc(b1-4)GlcNAc
# In short: as §1
# [12] = biological target: Neu5Ac(a2-6)Gal(b1-4)GlcNAc(b1-2)Man(a1-6)[GlcNAc(b1-2)Man(a1-3)]Man(b1-4)GlcNAc(b1-4)GlcNAc
# In short: as §1
# [13] = biological target: Neu5Ac(a2-6)Gal(b1-4)GlcNAc(b1-3)Gal(b1-4)GlcNAc
# In short: as §1
# [14] = biological target: Neu5Ac(a2-6)Gal(b1-4)GlcNAc(b1-3)Gal(b1-4)[Fuc(a1-3)]GlcNAc(b1-3)Gal(b1-4)[Fuc(a1-3)]GlcNAc
# In short: as §1
# [15] = biological target: Neu5Ac(a2-6)Gal(b1-4)GlcNAc6S
# In short: as §1
# Neu5Ac(a2-6)GalNAc = biological target: Neu5Ac(a2-6)GalNAc
# In short: as §1
# [16] = biological target: Neu5Ac(a2-6)GalNAc(b1-4)GlcNAc
# In short: as §1
# Neu5Ac(a2-8)Neu5Ac = biological target: Neu5Ac(a2-8)Neu5Ac
# In short: as §1
# [17] = biological target: Neu5Ac(a2-8)Neu5Ac(a2-3)Gal(b1-4)Glc
# In short: as §1
# [18] = biological target: Neu5Ac(a2-8)Neu5Ac(a2-3)[GalNAc(b1-4)]Gal(b1-4)Glc
# In short: as §1
# [19] = biological target: Neu5Ac(a2-8)Neu5Ac(a2-8)Neu5Ac
# In short: as §1
# [20] = biological target: Neu5Ac(a2-8)Neu5Ac(a2-8)Neu5Ac(a2-3)Gal(b1-4)Glc
# In short: as §1
# [21] = biological target: Neu5Ac(a2-8)Neu5Ac(a2-8)Neu5Ac(a2-3)[GalNAc(b1-4)]Gal(b1-4)Glc
# In short: as §1
# [22] = biological target: Neu5Ac(a2-8)Neu5Ac(a2-8)Neu5Ac(a2-8)Neu5Ac(a2-3)[GalNAc(b1-4)]Gal(b1-4)Glc
# In short: as §1
# [23] = biological target: Neu5Ac(b2-6)Gal(b1-4)GlcNAc
# In short: as §1
# Neu5Ac(b2-6)GalNAc = biological target: Neu5Ac(b2-6)GalNAc
# In short: as §1
# [24] = biological target: Neu5Ac9Ac(a2-6)Gal(b1-4)GlcNAc
# In short: as §1
# [25] = biological target: Neu5Gc(a2-3)Gal(b1-3)GlcNAc
# In short: as §1
# [26] = biological target: Neu5Gc(a2-3)Gal(b1-3)[Fuc(a1-4)]GlcNAc
# In short: as §1
# Neu5Gc(a2-3)Gal(b1-4)Glc = biological target: Neu5Gc(a2-3)Gal(b1-4)Glc
# In short: as §1
# [27] = biological target: Neu5Gc(a2-3)Gal(b1-4)GlcNAc
# In short: as §1
# [28] = biological target: Neu5Gc(a2-3)Gal(b1-4)[Fuc(a1-3)]GlcNAc
# In short: as §1
# [29] = biological target: Neu5Gc(a2-6)Gal(b1-4)GlcNAc
# In short: as §1
# Neu5Gc(a2-6)GalNAc = biological target: Neu5Gc(a2-6)GalNAc
# In short: as §1
# [30] = biological target: Neu5Gc(b2-6)Gal(b1-4)GlcNAc
# In short: as §1
binder,measurement,setting,value
B1,glycan array binding signal (z-score),[1],-0.145
same,glycan array binding signal (z-score),Neu5Ac(a2-3)GalNAc,-0.149
same,glycan array binding signal (z-score),[2],-0.14
same,glycan array binding signal (z-score),[3],-0.137
same,glycan array binding signal (z-score),[4],-0.138
same,glycan array binding signal (z-score),[5],-0.103
same,glycan array binding signal (z-score),Neu5Ac(a2-6)Gal,-0.145
same,glycan array binding signal (z-score),Neu5Ac(a2-6)Gal(b1-4)Glc,-0.137
same,glycan array binding signal (z-score),[6],-0.108
same,glycan array binding signal (z-score),[7],-0.09
same,glycan array binding signal (z-score),[8],-0.126
same,glycan array binding signal (z-score),[9],-0.137
same,glycan array binding signal (z-score),[10],-0.13
same,glycan array binding signal (z-score),[11],-0.15
same,glycan array binding signal (z-score),[12],-0.126
same,glycan array binding signal (z-score),[13],-0.159
same,glycan array binding signal (z-score),[14],-0.155
same,glycan array binding signal (z-score),[15],-0.164
same,glycan array binding signal (z-score),Neu5Ac(a2-6)GalNAc,-0.155
same,glycan array binding signal (z-score),[16],-0.126
same,glycan array binding signal (z-score),Neu5Ac(a2-8)Neu5Ac,-0.095
same,glycan array binding signal (z-score),[17],-0.136
same,glycan array binding signal (z-score),[18],-0.098
same,glycan array binding signal (z-score),[19],-0.151
same,glycan array binding signal (z-score),[20],-0.134
same,glycan array binding signal (z-score),[21],-0.136
same,glycan array binding signal (z-score),[22],-0.132
same,glycan array binding signal (z-score),[23],-0.153
same,glycan array binding signal (z-score),Neu5Ac(b2-6)GalNAc,-0.157
same,glycan array binding signal (z-score),[24],-0.153
same,glycan array binding signal (z-score),[25],-0.141
same,glycan array binding signal (z-score),[26],-0.167
same,glycan array binding signal (z-score),Neu5Gc(a2-3)Gal(b1-4)Glc,-0.166
same,glycan array binding signal (z-score),[27],-0.136
same,glycan array binding signal (z-score),[28],-0.145
same,glycan array binding signal (z-score),[29],-0.118
same,glycan array binding signal (z-score),Neu5Gc(a2-6)GalNAc,-0.149
same,glycan array binding signal (z-score),[30],-0.136

# — the supplement of paper PMC8728848
